According to the supplement of paper PMC6089552:
The whole screen tested about 3,200 compounds, of which about 300 (9.4%) showed activity. This is a selection; strong and weak results do not stand in their true shares.

System: A673/TR/shEF
Test: cell viability (LOESS-normalised, relative to median of negative controls) (log2 ratio); higher = more viable cells (less compound effect), active = hit call of the paper (over 3 MAD below the median)
Details: treatment time: 72 h
Outline: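 Viability of A673/TR/shEF Ewing sarcoma cells was determined by CellTiter-Glo luminescence. The cells, at 1,500 per well in 384-well plates, were grown with or without doxycycline from 24 h before compound addition to switch on EWS-FLI1 shRNA knockdown, then exposed for three days to library compounds at two or more concentrations or to DMSO controls. Signals were LOESS-corrected plate by plate, normalised to the negative-control median and log2-transformed.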

[1] = 0.25 µM, library screen: screen1, EWS-FLI1 expression: high (no doxycycline)
[2] = 0.25 µM, library screen: screen1, EWS-FLI1 expression: low (doxycycline-induced shRNA knockdown)
[3] = 2.5 µM, library screen: screen1, EWS-FLI1 expression: high (no doxycycline)
[4] = 2.5 µM, library screen: screen1, EWS-FLI1 expression: low (doxycycline-induced shRNA knockdown)
[5] = 0.25 µM, library screen: screen2, EWS-FLI1 expression: high (no doxycycline)
[6] = 0.25 µM, library screen: screen2, EWS-FLI1 expression: low (doxycycline-induced shRNA knockdown)
[7] = 2.5 µM, library screen: screen2, EWS-FLI1 expression: high (no doxycycline)
[8] = 2.5 µM, library screen: screen2, EWS-FLI1 expression: low (doxycycline-induced shRNA knockdown)

Measured: cell viability (log2)

COC(=O)[C@@H]1OC(=O)C2OC23[C@@]1(C)CCC1[C@@]2(C)CCC(=O)C(C)(C)C2C[C@@H](OC(C)=O)[C@]13C (stereo partly specified)
inactive: [1] 0.0302 | [2] 0.00682 | [3] 0.123 | [4] 0.0574

Cn1c([N+](=O)[O-])cnc1COC(N)=O
inactive: [1] 0.137 | [2] -0.0161 | [3] 0.0994 | [4] 0.189

CN1CC(=O)N=C1N
inactive: [1] 0.0593 | [2] 0.0447 | [3] 0.041 | [4] 0.0685

O=C(O)CCCCCCCn1ccnc1
inactive: [1] 0.124 | [2] 0.0433 | [3] 0.168 | [4] 0.0749

NC(N)=O
inactive: [1] -0.0272 | [2] 0.118 | [3] 0.131 | [4] 0.195

C=C1[C@@H]([C@@]2(C)C=CC(=O)C(C)(C)[C@@H]2CC(=O)OC)CC[C@@]2(C)C(c3ccoc3)OC(=O)[C@H]3O[C@]132 (stereo partly specified)
inactive: [1] 0.109 | [2] 0.0181 | [3] 0.0641 | [4] 0.0727

CC(C)NC[C@H](O)c1ccc(O)c(O)c1
inactive: [5] 0.15 | [6] 0.0965 | [7] 0.0541 | [8] 0.0273

C[C@@H]1CC[C@@]2(OC1)O[C@H]1C[C@H]3[C@@H]4CC[C@@H]5C[C@@H](O)CC[C@]5(C)[C@H]4CC[C@]3(C)[C@H]1[C@@H]2C
inactive: [1] 0.0641 | [2] 0.0518 | [3] 0.077 | [4] 0.0287

NCCS(=O)O
inactive: [5] 0.169 | [6] -0.00866 | [7] 0.0939 | [8] 0.0741

N[C@@H](C(=O)N[C@@H]1C(=O)N2C(C(=O)O)=C(Cl)CS[C@H]12)c1ccccc1
inactive: [1] 0.116 | [2] -0.0458 | [5] 0.0336 | [6] 0.0653 | [3] 0.203 | [4] 0.114 | [7] 0.0911 | [8] 0.104

N#C/C(=C\c1ccc(O)c(O)c1)C(=O)NCCCNC(=O)/C(C#N)=C/c1ccc(O)c(O)c1
inactive: [5] 0.153 | [6] 0.132 | [7] 0.199 | [8] 0.0575

O=C(OCc1ccccc1)c1ccccc1
inactive: [1] 0.0522 | [2] 0.0983 | [3] 0.0811 | [4] 0.112

OC(CCN1CCCCC1)(c1ccccc1)C1CCCCC1 (stereo unspecified)
inactive: [1] 0.0577 | [2] 0.0688 | [5] 0.222 | [6] 0.088 | [3] 0.11 | [4] 0.0848 | [7] 0.239 | [8] 0.00127

COc1ccc(OC)c(CN2CCN(Cc3c[nH]c4ccccc34)CC2)c1
inactive: [1] 0.113 | [2] 0.0685 | [3] 0.072 | [4] 0.0923

O=C1CC(c2ccc(O)cc2)Oc2ccccc21 (stereo unspecified)
inactive: [1] 0.0599 | [2] -0.000865 | [3] 0.091 | [4] 0.0844

Cc1cc(=O)c2c(O)c3c(cc2o1)OC(C)(C)CC3
inactive: [1] -0.0169 | [2] 0.014 | [3] 0.0268 | [4] 0.147

Brc1c(NC2=NCCN2)ccc2nccnc12
inactive: [5] 0.141 | [6] 0.057 | [7] 0.149 | [8] -0.0709

CN(C)CCOC(=O)COc1ccc(Cl)cc1
inactive: [1] 0.0859 | [2] 0.0772 | [5] 0.194 | [6] 0.101 | [3] 0.0874 | [4] 0.0722 | [7] 0.119 | [8] 0.0469

C[C@H]1C[C@@H]2[C@H]([C@@H](O)C[C@@]3(C)[C@H]2CC[C@]3(O)C(=O)COC(=O)CCC(=O)O)[C@@]2(C)C=CC(=O)C=C12
inactive: [1] 0.203 | [2] 0.147 | [3] 0.205 | [4] -0.0324

Nc1cc(-c2ccncc2)c[nH]c1=O
inactive: [1] 0.126 | [2] 0.165 | [3] 0.172 | [4] 0.151

Nc1c(Br)cc(Br)cc1CNC1CCC(O)CC1 (stereo unspecified)
inactive: [1] 0.0989 | [2] 0.134 | [3] 0.12 | [4] 0.146

CC(=O)OC1CCC2(O)CC1(C)CCC1C2CC1(C)C (stereo unspecified)
inactive: [1] 0.146 | [2] -0.0214 | [3] 0.0446 | [4] 0.0774

CN(CCOc1ccc(CC2SC(=O)NC2=O)cc1)c1ccccn1 (stereo unspecified)
inactive: 0.103 µM, library screen: screen3, EWS-FLI1 expression: high (no doxycycline) 0.07 | 0.103 µM, library screen: screen3, EWS-FLI1 expression: low (doxycycline-induced shRNA knockdown) 0.0896 | [1] 0.0497 | [2] 0.0402 | 0.308 µM, library screen: screen3, EWS-FLI1 expression: high (no doxycycline) 0.0792 | 0.308 µM, library screen: screen3, EWS-FLI1 expression: low (doxycycline-induced shRNA knockdown) 0.0391 | 0.926 µM, library screen: screen3, EWS-FLI1 expression: high (no doxycycline) 0.124 | 0.926 µM, library screen: screen3, EWS-FLI1 expression: low (doxycycline-induced shRNA knockdown) 0.0651 | [3] 0.0946 | [4] 0.0673 | 2.8 µM, library screen: screen3, EWS-FLI1 expression: high (no doxycycline) 0.0659 | 2.8 µM, library screen: screen3, EWS-FLI1 expression: low (doxycycline-induced shRNA knockdown) 0.039 | 8.3 µM, library screen: screen3, EWS-FLI1 expression: high (no doxycycline) 0.0712 | 8.3 µM, library screen: screen3, EWS-FLI1 expression: low (doxycycline-induced shRNA knockdown) 0.0703 | 25 µM, library screen: screen3, EWS-FLI1 expression: high (no doxycycline) 0.0482 | 25 µM, library screen: screen3, EWS-FLI1 expression: low (doxycycline-induced shRNA knockdown) 0.0912
